According to article PMC6212790:
Some of the results follow. At the low end of the ranking the order means little.

These sequences were tested against T1, GST-Rok-C97-191 (UniProt O34857) (assay: protein binding microarray). Details: Rok is a gene silencer of Bacillus subtilis; high values mean tight binding; most listed sequences are background and not binding sites; double strand, one strand shown.
T1 sequence: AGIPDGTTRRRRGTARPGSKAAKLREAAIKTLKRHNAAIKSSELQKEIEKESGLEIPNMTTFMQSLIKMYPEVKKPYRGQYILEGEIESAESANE
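Further: rank score from −0.5 (least bound) to 0.5 (best bound).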

| Sequence | binding signal [E-score] |
| --- | --- |
| AATTTGAA | -0.0188 |
| GCTCCATA | -0.0452 |
| ATTTCTCA | 0.126 |
| CTATGACA | 0.0447 |
| GGAGATAA | 0.122 |
| AAGTGATA | 0.288 |
| ATCTGTAG | 0.37 |
| AGTACAGC | 0.174 |
| CACGACAA | -0.0945 |
| ACGGGGTC | -0.275 |
| GAAATGTA | 0.329 |
| CCTGCAGC | -0.284 |
| CTGGAGTC | -0.117 |
| CTTGCACC | -0.00963 |
| ACTATAAT | 0.299 |
| AGTGACCA | -0.184 |
| AAAGAACT | 0.233 |
| CCTGTTCC | -0.204 |
| CCTACACC | -0.215 |
| GCAGGCGC | -0.217 |
| ATACTCCA | 0.112 |
| GGCATATA | 0.0304 |
| CAATCTGA | -0.127 |
| AGTTATTA | 0.23 |
| CTCATGAC | -0.0988 |

| Sequence | binding signal [E-score] |
| --- | --- |
| CATTATTC | 0.188 |
| AAGTTGCA | 0.0502 |
| GCGTTACC | -0.112 |
| ACAGGGAG | -0.159 |
| CGTAATTA | 0.318 |
| TGCTTGAA | -0.109 |
| CTCCTGCA | -0.221 |
| CAGTTGCG | -0.153 |
| AGAGGACA | -0.102 |
| ACGAAAAG | -0.151 |
| CACATGAC | -0.0896 |
| CCGTTAAG | -0.0449 |
| TAACGGTA | 0.278 |
| AAGGGTCG | -0.229 |
| CGCTGAGA | -0.311 |
| ATTCCAAC | 0.0309 |
| AGATTAGG | 0.167 |
| CCGGGTCA | -0.247 |
| TTACTGAA | 0.144 |
| ACCTGCAG | 0.0473 |
| CATCTTAA | 0.184 |
| ATAGTGTA | 0.346 |
| CATTTGGC | -0.0432 |
| TGCTCTAA | -0.0813 |
| GTCTACGA | -0.0769 |

| Sequence | binding signal [E-score] |
| --- | --- |
| CTCTGTCC | -0.234 |
| CTAGTCCC | -0.195 |
| TCTTAAAA | -0.0115 |
| AGCTATAG | 0.233 |
| CTAACCTC | -0.0994 |
| CCCGCTTC | -0.0653 |
| ATCGCGAG | -0.0109 |
| AGCGTTAC | 0.0931 |
| TACATAAA | 0.301 |
| AATGGTAA | 0.238 |
| AGCGTCCC | -0.251 |
| AGCGCCTC | -0.208 |
| CCTTCAAC | -0.0251 |
| AACCATCA | -0.0117 |
| GAGTCACC | -0.306 |
| CTGAGGCC | -0.276 |
| AAACGATC | 0.0409 |
| CGATATCG | 0.199 |
| ACTACGGG | -0.07 |
| TGATTAAA | -0.123 |
| AACCAGGC | -0.227 |
| AGGAGGAT | -0.118 |
| CTCAATGC | -0.173 |
| CCACGGGG | -0.367 |
| AGATCCAC | -0.0974 |

| Sequence | binding signal [E-score] |
| --- | --- |
| GGACAAAA | -0.0959 |
| AAGCGACC | -0.151 |
| CCCTTATA | -0.162 |
| ACCCTGCG | -0.261 |
| CCAAAGCC | -0.289 |
| AAACGGAC | -0.032 |
| AGGAGCAC | -0.222 |
| CAGAAATG | -0.00219 |
| CTCTAGTA | 0.212 |
| AACGTATA | 0.205 |
| ACGGAAGA | 0.0353 |
| AGGCGAAG | -0.0998 |
| GTCAACTA | 0.0659 |
| CTGAGTTC | -0.188 |
| AACCTCCC | -0.244 |
| CTGTCATA | -0.108 |
| CCGTTGCA | -0.0719 |
| CTTCAATC | -0.121 |
| TGACTACA | 0.031 |
| AGAACTCT | 0.0863 |
| AAGGCAAT | -0.0842 |
| CGCTAAGC | -0.17 |
| ACCCAGAA | -0.109 |
| GACGGCTA | -0.221 |
| CAGCGCGG | -0.215 |

| Sequence | binding signal [E-score] |
| --- | --- |
| CATTCGAA | 0.101 |
| TAAAAAGA | 0.152 |
| AATTACTG | 0.253 |
| AGCACGAC | -0.0405 |
| AATAAAAG | 0.096 |
| ATTAACCC | 0.00506 |
| CAAGACGG | -0.136 |
| CTAGTACC | 0.244 |
| ATCAACCC | -0.0743 |
| ACGGGGGG | -0.23 |
| AGCAATGC | 0.0777 |
| GAGCGCCA | -0.21 |
| ACCCCCTG | -0.261 |
| CCCGTGCG | -0.324 |
| CCACCAAC | -0.239 |
| AATAAGTA | 0.273 |
| GATAAACC | 0.113 |
| CCAGACTC | -0.071 |
| ATGCCGGC | -0.3 |
| AACCGCAC | -0.155 |
| GAGAAAAC | 0.0044 |
| GCTGAACC | -0.187 |
| CGGAATAC | 0.103 |
| AATAAATT | 0.282 |
| ATGATTCC | -0.0893 |

| Sequence | binding signal [E-score] |
| --- | --- |
| AGGGGGAG | -0.243 |
| GTCCCGTA | 0.0986 |
| AAAATAGC | 0.21 |
| GGCATGAA | 0.0205 |
| AATTCACG | 0.127 |
| GCAACAGA | -0.0918 |
| CAGGCCGA | -0.165 |
| GCGAACCA | -0.221 |
| CCAGAGCG | -0.288 |
| CAGTCTAC | 0.0696 |
| ATCTGAAG | -0.267 |
| CGCCAGTC | -0.225 |
| CGCACAAG | -0.271 |
| ACCCGGCT | -0.0887 |
| CCTCCTCC | -0.437 |
| CCAATCTA | 0.316 |
| AGCCATTG | -0.0954 |
| GCTAAAGA | 0.0226 |
| ATGCAGGC | -0.0839 |
| GCTGATTA | 0.0269 |
| ACTTGCCT | -0.03 |
| CGAGGATA | -0.0625 |
| CTGTACTC | 0.0566 |
| CAGTATGC | -0.144 |
| ACAACTTA | 0.152 |

| Sequence | binding signal [E-score] |
| --- | --- |
| CTCTCCAC | -0.106 |
| AATTTACG | 0.338 |
| ATATCTCG | 0.199 |
| TGAAACAA | -0.122 |
| AACTTCTC | 0.117 |
| AAATGACG | -0.0261 |
| CTTGAGGA | 0.0216 |
| GACCAGTC | -0.116 |
| CTTGTGTC | -0.132 |
| GATTACGA | 0.0379 |
| AAAATGCC | 0.176 |
| AAAGCCTT | -0.215 |
| CCATAAGA | 0.104 |
| TTCCACAA | -0.0623 |
| GCTACCCC | 0.0676 |
| AGTCTAGA | 0.011 |
| AGGCGCGG | -0.328 |
| CACTTGGG | -0.0774 |
| GAGACAGA | -0.199 |
| ATCTTATA | 0.286 |
| AAAAGGCA | -0.0386 |
| CCTATGGC | -0.202 |
